Assay results reported in patent US20240156901A1 (UNIVERSITY OF PITTSBURGH OF THE COMMONWEALTH SYSTEM OF …, published 2024).

Target: T1, Galectin-3-binding protein (endogenous, TS603 cells) (Homo sapiens, UniProt Q08380 19-585)
T1 construct: Endogenous protein in the TS603 patient GBM neurosphere line; also called Gal3BP
T1 sequence: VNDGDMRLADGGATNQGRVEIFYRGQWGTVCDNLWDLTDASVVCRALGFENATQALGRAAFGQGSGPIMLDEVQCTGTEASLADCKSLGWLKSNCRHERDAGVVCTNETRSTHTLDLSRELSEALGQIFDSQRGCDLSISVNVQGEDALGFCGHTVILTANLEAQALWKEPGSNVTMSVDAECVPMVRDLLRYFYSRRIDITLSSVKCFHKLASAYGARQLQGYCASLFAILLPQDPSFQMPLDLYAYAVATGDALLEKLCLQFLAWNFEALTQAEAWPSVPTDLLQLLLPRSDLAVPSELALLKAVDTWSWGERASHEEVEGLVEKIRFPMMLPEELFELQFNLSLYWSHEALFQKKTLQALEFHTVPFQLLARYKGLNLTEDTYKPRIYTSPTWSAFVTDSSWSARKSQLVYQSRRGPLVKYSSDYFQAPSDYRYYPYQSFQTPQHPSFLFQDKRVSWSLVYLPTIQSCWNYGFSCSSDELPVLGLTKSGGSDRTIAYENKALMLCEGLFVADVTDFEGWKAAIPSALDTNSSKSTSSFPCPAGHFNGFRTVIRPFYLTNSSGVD
Experiment: Co-IP from TS603 CHI3L1_V5_OE + LC-MS; table headed 'Candidates that interact with CHI3L1 by liquid chromatography-mass spectrometry (LC-MS) assay'

binding result: binds
B1: V5-tagged CHI3L1 overexpressed in TS603 cells (other)
chain: YKLVCYYTSWSQYREGDGSCFPDALDRFLCTHIIYSFANISNDHIDTWEWNDVTLYGMLNTLKNRNPNLKTLLSVGGWNFGSQRFSKIASNTQSRRTFIKSVPPFLRTHGFDGLDLAWLYPGRRDKQHFTTLIKEMKAEFIKEAQPGKKQLLLSAALSAGKVTIDSSYDIAKISQHLDFISIMTYDFHGAWRGTTGHHSPLFRGQEDASPDRFSNTDYAVGYMLRLGAPASKLVMGIPTFGRSFTLASSETGVGAPISGPGIPGRFTKEAGTLAYYEICDFLRGATVHRILGQQVPYATKGNQWVGYDDQESVKSKVQYLKDRQLAGAMVWALDLDDFQGSFCGQDLRFPLTNAIKDALAAT
notes: also called TS603 CHI3L1_V5_OE; TS603-V5-CHI3L1; not shown: V5 tag
